# Test results reported in PubChem BioAssay AID624417 (National Center for Advancing Translational Sciences (NCATS), 2012).
# In all, about 410,000 compounds went through this assay and about 6,400 (1.6%) were called active. Inconclusive means that the source gave no clear call. Such entries were picked first, then a sample of the others. The call rests on the fitted dose curve; in most records, active means well fitted inhibition curve with a large enough effect; inconclusive means small, poorly fitted or top-dose-only effect; inactive means no such curve, though single readings can be large or run the other way. Potencies of inconclusive entries are left out as doubtful fits.
# Target: Glucagon-like peptide 1 receptor (Homo sapiens) (UniProt P43220)
# Assay: qHTS of GLP-1 Receptor Inverse Agonists (Inhibition Mode); further: nearly all actives have a fitted effect of over 55% in size
# Conditions: HEK293 GLP-1R CRE-luciferase, luminescence, 24 h, GLP-1R form is constitutively active; activity change, negative = inhibition: at 38.3 µM (top of the series) unless noted
# Method in brief: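 Luminescence readout: a drop in cAMP-driven luciferase signal flags inverse agonism at a constitutively active GLP-1R stably expressed in HEK293. Compound exposure lasted 24 hr at 37 deg C, 5% CO2.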
# On the % scale 0 is the no-effect control and ±100 the full control effect; potency means the concentration at half of the fitted maximal effect; tags describe the fitted curve by direction and shape.
# UniProt P43220, sequence (P43220 whole entry, looked up): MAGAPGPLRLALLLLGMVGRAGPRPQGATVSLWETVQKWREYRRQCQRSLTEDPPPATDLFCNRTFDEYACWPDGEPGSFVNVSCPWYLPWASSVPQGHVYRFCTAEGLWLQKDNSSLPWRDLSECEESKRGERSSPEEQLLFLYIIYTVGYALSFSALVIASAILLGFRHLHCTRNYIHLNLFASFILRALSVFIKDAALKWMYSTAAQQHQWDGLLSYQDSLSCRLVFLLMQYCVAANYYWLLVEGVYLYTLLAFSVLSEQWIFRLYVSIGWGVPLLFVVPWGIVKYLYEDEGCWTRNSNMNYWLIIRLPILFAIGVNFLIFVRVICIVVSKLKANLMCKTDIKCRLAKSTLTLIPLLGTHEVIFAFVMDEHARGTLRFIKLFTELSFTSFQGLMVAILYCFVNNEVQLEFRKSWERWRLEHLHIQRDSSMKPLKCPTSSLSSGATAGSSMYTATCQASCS
Structure (SMILES),Potency,"activity change, negative = inhibition"
CC(C)(C)C1CCC(OCC(O)CN2CCN(c3ccccc3)CC2)CC1 (centres undefined),"inconclusive [inhibitor, partial curve, poor fit]",
CC(C)=CCC[C@H](C)C[C@@H]1CC2=C(C(=O)OC(C)(C)O2)[C@@H](c2ccc(F)cc2)O1,"inconclusive [inhibitor, single point]",
COc1cc(/C=C/C(=O)c2ccc(C)cc2)ccc1OCC#N,"inconclusive [inhibitor, single point]",
CCOC(=O)C1=C(C)NC(C)=C(C(=O)OCC)C1c1ccc(Br)o1,"inconclusive [inhibitor, single point]",
COC(=O)Nc1ncc(CN2CCc3ccccc3C2)s1,,inactive: -3.13%
Cc1ccc(CCNC(=O)C2CCCN(S(=O)(=O)c3c(C)noc3C)C2)cc1 (centres undefined),"inconclusive [inhibitor, partial curve]",
CC(C)c1ccc(-c2noc(C3CCCN(C(=O)c4ccc(F)cc4F)C3)n2)cc1 (centres undefined),"inconclusive [inhibitor, single point]",
O=C(NCC(c1cccnc1)N1CCN(c2ccc(F)cc2)CC1)c1cccc(Cl)c1 (centres undefined),"inconclusive [inhibitor, partial curve, poor fit]",
CCn1ncc(Br)c1C(=O)Nc1nccs1,,inactive: 2.53%
Cc1ccc(/C=N/N2CCN(Cc3ccc(Cl)cc3)CC2)o1,"inconclusive [inhibitor, partial curve]",
CCC[C@@H]1C[C@@]1(CCC)[C@@H](NP(=O)(c1ccccc1)c1ccccc1)c1ccc(C(=O)OC)cc1,"inconclusive [inhibitor, partial curve, poor fit]",
O=C(Cc1ccc(S(=O)(=O)N2CCOCC2)s1)Nc1ccc(S(=O)(=O)N2CCCCC2)cc1,"inconclusive [inhibitor, partial curve, poor fit]",
Cc1ccn2cc(CCNS(=O)(=O)c3ccc4c(c3)CCCC4)nc2c1,"inconclusive [inhibitor, full curve]",
O=C(NNC(=O)c1ccccc1O)c1ccc(S(=O)(=O)Nc2ccccc2F)cc1,"inconclusive [inhibitor, single point]",
COc1ccc(C(=O)C[n+]2cc(-c3ccc(OC)cc3)n3c2CCCC3)cc1,"inconclusive [inhibitor, partial curve, poor fit]",
CCOc1ccccc1N1CCN(Cc2cnc(-c3ccccc3)[nH]2)CC1,"inconclusive [inhibitor, single point]",
Cc1c(C(=O)NC2CC2)oc2ccc(S(=O)(=O)N3CCCCCC3)cc12,"inconclusive [inhibitor, full curve]",
O=C1N(Cc2ccccc2)c2ccccc2C1(O)c1c[nH]c2ccccc12 (centres undefined),"inconclusive [inhibitor, partial curve, poor fit]",
CCOc1ccc(N(C)S(=O)(=O)c2ccc(C)c(C(=O)NCc3cccs3)c2)cc1,"inconclusive [inhibitor, single point]",
COc1cc(CN2CCCC(CO)(Cc3cccc(Cl)c3)C2)cc2c1OCO2 (centres undefined),"inconclusive [inhibitor, partial curve, poor fit]",

Structure (SMILES),Potency,"activity change, negative = inhibition"
S=c1[nH]cnc2scc(-c3ccc(Cl)cc3)c12,"inconclusive [inhibitor, single point]",
Cn1c(C(O)c2ccc(Br)cc2)nc(Cl)c1Cl (centres undefined),"inconclusive [inhibitor, partial curve]",
O=C(CCl)NCCCCCCCCCNC(=O)CCl,"inconclusive [inhibitor, single point]",
S=C(Nc1ccccc1)Nc1ccc(Br)cc1,"inconclusive [inhibitor, partial curve, poor fit]",
CCN1CCCC1CNC(=O)CS(=O)(=O)Cc1nc(-c2ccccc2C)oc1C (centres undefined),"inconclusive [inhibitor, single point]",
O=C(Nc1cccnc1)Nc1ccc(Br)cc1Cl,"inconclusive [inhibitor, single point]",
Cc1ccc(CN2CC(=O)N3[C@H]4c5cc(Cl)ccc5OC[C@@H]4[C@H](c4ccccc4)[C@]3(C)C2=O)cc1,"inconclusive [inhibitor, single point]",
CN(Cc1ccc(Cl)cc1Cl)C(=O)c1cccc(S(=O)(=O)N2CCN(c3ccccc3)CC2)c1,"inconclusive [inhibitor, single point]",
CCOc1ccc(-c2nc(SCC(=O)Nc3cc(F)ccc3F)n3[nH]c(=O)cc3n2)cc1,,inactive: 2.14%
Cc1ccc(CNc2nc(NCC3CC3)nc3ccsc23)c(C)c1,"inconclusive [inhibitor, partial curve, poor fit]",
CCOC(=O)[C@]12CCCC=C1N(Cc1cccc3ccccc13)C(=O)[C@H](CC(=O)NCc1cccs1)C2,"inconclusive [inhibitor, partial curve, poor fit]",
COc1cc(Cl)ccc1OC1(C)CCN(Cc2ccccc2OC(F)F)C1 (centres undefined),"inconclusive [inhibitor, single point]",
CC1CC(C)CN(S(=O)(=O)c2ccc(C(=O)Nc3nnc(C4CC4)o3)cc2)C1 (centres undefined),"inconclusive [inhibitor, single point]",
CCCS(=O)(=O)c1nc(S(=O)(=O)c2ccc(C)cc2)c(N2CCCC(C)C2)s1 (centres undefined),active: 12.6 µM,
CCCCn1c(=N)n(CCOc2ccccc2OC)c2ccccc21,"inconclusive [inhibitor, partial curve]",
COc1ccc(C2c3c(n(C)c4ccccc34)C(=O)N2CC(=O)Nc2ccc(F)cc2)cc1 (centres undefined),,inactive: -7.91%
CC(C)c1ccc(CNc2n[nH]c(-c3ccco3)n2)cc1,,inactive: 4.12%
COc1ccc(CNC(=O)N2CCN(S(=O)(=O)c3ccc(C)cc3C)CC2)cc1,"inconclusive [inhibitor, single point]",
Cn1cc(S(=O)(=O)N2CCOCC2)cc1C(=O)Nc1cccc(C#N)c1,,inactive: 1.9%
